Values joined by “and” are separate entries in the source; they are usually repeats but may differ in a detail not shown here. Equal entries are not always repeated. The whole screen tested about 420,000 compounds, of which about 64,000 (15%) were called active. This list was built around the results that the source calls inconclusive (neither active nor inactive); the mix of calls is not that of the screen. Calls come from the whole dose curve; as a rule, active = well fitted inhibition curve with a large enough effect; inconclusive = small, poorly fitted or top-dose-only effect; inactive = flat fitted curve, though single readings scatter. Potencies of inconclusive entries are doubtful fits and often do not repeat.
Test: qHTS for Inhibitors of human tyrosyl-DNA phosphodiesterase 1 (TDP1): qHTS in cells in absence of CPT; note: nearly all actives have a fitted effect of over 55% in size
Details: DT40 Tdp1-/- hTDP1 cells, no CPT, ATP luminescence, 48 h; activity change, negative = growth inhibition: at 46.2 µM (top of the series) unless noted
In short: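 Seeded 400 DT40-hTDP1 cells/well (vehicle DMSO, no 20 nM CPT); pinned compounds; ≥48 hr at 37 °C; CellTiter-Glo luminescence as viability measure.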
For Cc1ccc(S(=O)(=O)Nc2ccc(Nc3nccn4c(-c5ccccc5Oc5ccccc5)cnc34)cc2)cc1, the activity change, negative = growth inhibition was inconclusive: -31.2% [inhibitor].
With CCn1cc(SCC(=O)NCC2CCCO2)c2ccccc21 (stereo not given) the “activity change, negative = growth inhibition” value was inactive: -7.01%.
For COc1ccccc1-c1noc(-c2ccccc2C(=O)NCc2ccco2)n1, the Potency was inconclusive: 13 µM [inhibitor, partial curve].
In the case of N/C(=N\OC(=O)/C=C/c1ccccc1)c1ccc(Br)cc1, the “activity change, negative = growth inhibition” value is reported as inactive: -11.8%.
With COc1ccc(NC(=O)N2CC[C@@]3(CCCN(C(=O)c4ccncc4)C3)C2)cc1 the “activity change, negative = growth inhibition” value was inactive: 1.08%.
For COc1ccccc1N1CCN(C(=O)c2cc(-c3ccc(Cl)c(Cl)c3)on2)CC1, the Potency was inconclusive: 14.6 µM [inhibitor, partial curve].
With CC(=O)ON(C(C)=O)c1ccc(/C=C2/C=Cc3ccccc32)cc1 the Potency was inconclusive: 14.1 µM [inhibitor, single point].
In the case of Cc1cccc(CNC(=O)CN2C(=O)CCn3nc(-c4cn(C)c5ccccc45)cc32)c1, the activity change, negative = growth inhibition is reported as inconclusive: -32.4% [inhibitor].
With CCCC12CN3CC(C)(CN(C1)C3c1ccc(OCc3ccccc3)cc1)C2=O (stereo not given) the Potency was inconclusive: 18.4 µM [inhibitor, partial curve].
In the case of Nc1nc(N)c2sc3nc(C(F)(F)F)cc(C(F)(F)F)c3c2n1, the Potency is reported as inconclusive: 29.1 µM [inhibitor, single point].
For Cc1cc(C(=O)CSc2ccc(F)cc2)cc(C)c1OC(=S)N(C)C, the Potency was inconclusive: 23.1 µM [inhibitor, partial curve].
With Cc1ccc(SCc2nc(-c3ccc(C(=O)NCC(C)c4ccccc4)cc3)oc2C)cc1 (stereo not given) the Potency was active: 6.51 µM.
For O=C1CCC[C@@H]2CC(Nc3ccc(F)cc3F)C[C@@H]3CCN1[C@H]23 (stereo not given in full), the Potency was inconclusive: 29.1 µM [inhibitor, single point].
For Cc1ccc(-c2nn3c(C)nnc3s2)cc1NC(=O)c1cccs1, the “activity change, negative = growth inhibition” value was inactive: -27.3%.
For Clc1ccc(CN2CCc3c([nH]c4ccccc34)C2)cc1Cl, the Potency was active: 14.6 µM.
With CN(C(=O)CCn1c(=S)oc2ccccc21)c1ccc(F)cc1 the Potency was inconclusive: 23.1 µM [inhibitor, single point].
For CC(C)(C)c1cc(C(=O)NCc2ccccc2)ccn1, the Potency was inconclusive: 18.4 µM [inhibitor, single point].
For CCCC(c1nnnn1CC(=O)OCC)N(Cc1cc2ccc(C)cc2[nH]c1=O)C1CCCC1 (stereo not given), the Potency was inconclusive: 29.1 µM [inhibitor, single point].
In the case of Cc1c(N(C(=O)c2ccccn2)C2(C(=O)NC3CCCCC3)CCCCC2)c(=O)n(-c2ccccc2)n1C, the “activity change, negative = growth inhibition” value is reported as inactive: -0.045%.
For CCOc1ccc(N(CC(=O)N/N=C/c2ccc(OC(C)C)cc2)S(C)(=O)=O)cc1, the “activity change, negative = growth inhibition” value was inactive: -22.3%.
In the case of COCCN(C(=O)COC(=O)c1cc2ccccc2cc1O)c1c(N)n(Cc2ccccc2)c(=O)[nH]c1=O, the “activity change, negative = growth inhibition” value is reported as inactive: -21.4%.
With CC1CN(S(=O)(=O)c2cccc(C(=O)NCC(c3cccs3)N3CCOCC3)c2)CC(C)O1 (stereo not given) the “activity change, negative = growth inhibition” value was inactive: -7.86%.
In the case of Cc1ccc2c(nc3s/c(=C\c4ccc(-c5ccccc5C(=O)O)o4)c(=O)n32)c1C, the Potency is reported as inconclusive: 29.1 µM [inhibitor, single point].
In the case of COc1cccc(/C=C(/C(=O)OCC(N)=O)c2ccccc2)c1, the “activity change, negative = growth inhibition” value is reported as inactive: -26.2%.
For Cc1ccc(S(=O)(=O)N2CCCCC2)cc1C(=O)Nc1ccccn1, the “activity change, negative = growth inhibition” value was inactive: 1.12%.
In the case of O=C(COc1coc(CN2CCc3ccccc32)cc1=O)N1CCCCC1, the “activity change, negative = growth inhibition” value is reported as inactive: 0.533%.
For CCOC(=O)c1cc(-c2cc(OC)c(OC)c(OC)c2)nc2c1c(=O)[nH]c(=O)n2Cc1ccccc1, the Potency was inconclusive: 23.1 µM [inhibitor, partial curve].
In the case of C[C@@H]1CN([C@H](C)CO)C(=O)CCCn2cc(nn2)CO[C@H]1CN(C)C(=O)Nc1ccnc(N2CCOCC2)c1, the “activity change, negative = growth inhibition” value is reported as inactive: -9.96%.
In the case of CN1CCN(c2ccc(S(=O)(=O)N3CCCCC3)cc2NC(=O)c2cccc([N+](=O)[O-])c2)CC1, the “activity change, negative = growth inhibition” value is reported as inactive: -21.4%.
For O=C(C[C@@H]1C[C@@H]2c3cc(NC(=O)C4CCC4)ccc3O[C@@H]2[C@@H](CO)O1)NCc1ccc(Cl)cc1, the Potency was inconclusive: 4.11 µM [inhibitor, full curve].
With CCC(=O)N1CCC1(C)C(=O)Nc1ccc(OC(F)F)cc1 (stereo not given) the “activity change, negative = growth inhibition” value was inactive: -8.33%.
For Cc1cc2cc(CNC(=O)Cc3cccs3)ccc2n1C, the Potency was inconclusive: 20.6 µM [inhibitor, partial curve].
For O=C1CC2(CCN1)CCN(Cc1ccccc1)CC2, the “activity change, negative = growth inhibition” value was inactive: -12.7%.
With COc1cccc(C2=NOC(C(=O)NCc3cccnc3)C2)c1 (stereo not given) the Potency was inconclusive: 8.2 µM [inhibitor, partial curve].
In the case of Cc1ccc(F)cc1C(=O)N1CCCCC1c1cc(C(=O)Nc2cccc(C#N)c2)no1 (stereo not given), the Potency is reported as active: 20.6 µM.
For COc1ccccc1NC(=O)c1ccc2[nH]c(C)c(C)c2c1, the Potency was inconclusive: 29.1 µM [inhibitor, single point].
With O=C(c1csnn1)N1CCC2(CCCN(c3ccccc3)C2)CC1 the Potency was inconclusive: 23.1 µM [inhibitor, single point].
In the case of C=CCC1(CC=C)CCCN1C(=O)C1CCC(=O)N(CCc2ccccc2)C1 (stereo not given), the Potency is reported as active: 5.8 µM.
In the case of Cn1ncc(Cl)c1C(=O)N1CCC(Cc2ccccc2)CC1, the “activity change, negative = growth inhibition” value is reported as inactive: -10%.
For COc1ccc(-c2nc3cc(NC(=O)c4ccc(C)cc4)ccc3o2)cc1Cl, the Potency was inconclusive: 18.4 µM [inhibitor, single point].
For Cc1ccc(-c2cc(C(=O)N3CCN(c4ncccn4)CC3)c3cc(Br)ccc3n2)o1, the Potency was active: 8.2 µM.
In the case of CC1=NN(CCC#N)C(=O)/C1=C/c1ccc(N(C)C)cc1, the Potency is reported as inconclusive: 29.1 µM [inhibitor, single point].
For CC(=O)c1cc(-c2ccc(F)cc2)n(CCC(=O)Nc2nc3ccc(C)cc3s2)c1C, the Potency was active: 16.4 µM.
For CCOC(=O)CSc1nc2c(sc(=S)n2-c2ccc(CC)cc2)c(=O)[nH]1, the Potency was inconclusive: 18.4 µM [inhibitor, partial curve].
In the case of COC(=O)C1CSC(c2ccc(Cl)cc2)N1C(=O)c1ccccc1 (stereo not given), the Potency is reported as active: 18.4 µM.
With CCOc1ccc(Br)cc1C1NC(=O)c2c(sc3c2CCN(C)C3)N1 (stereo not given) the Potency was inconclusive: 29.1 µM [inhibitor, single point].
For COc1cc(OC)cc(Oc2ccc(S(=O)(=O)N3CCCCC3)cc2[N+](=O)[O-])c1, the Potency was inconclusive: 20.6 µM [inhibitor, single point].
For Cc1ccc(SC(C)C(=O)Nc2ccccc2-c2ccccc2)cc1 (stereo not given), the Potency was inconclusive: 13 µM [inhibitor, partial curve].
With Cc1cccc(-c2nc(CN3CCCC(C(=O)NC4CCCCC4)C3)c(C)o2)c1 (stereo not given) the Potency was active: 20.6 µM.
With CCN(CC)S(=O)(=O)c1ccc(-c2nnc(SCC(=O)N3CCc4ccccc43)o2)cc1 the Potency was inconclusive: 18.4 µM [inhibitor, single point].
For CCOc1ccc(NC(=O)COC(=O)c2c[nH]c3ccccc23)cc1, the activity change, negative = growth inhibition was inconclusive: -7.36% [inhibitor].
In the case of COc1ccc(CCNc2ncnc3onc(C)c23)c(OC)c1, the Potency is reported as active: 0.517 µM.
In the case of COc1ccc(C(=O)N=c2sc3ccccc3n2C)cc1, the Potency is reported as inconclusive: 16.4 µM [inhibitor, single point].
In the case of Cc1ccc(S(=O)(=O)N2CCOCC2)cc1NC(=O)C(c1ccc(Cl)cc1)C(C)C (stereo not given), the Potency is reported as inconclusive: 29.1 µM [inhibitor, single point].
With CSCCC(NC(=O)c1ccccc1)C(=O)N1CCN(C(C)=O)CC1 (stereo not given) the “activity change, negative = growth inhibition” value was inactive: 2.55%.
In the case of COc1cccc(CN(C)C(=O)c2cc(-c3ccc(OC)c(OC)c3)nc3ccccc23)c1, the Potency is reported as inconclusive: 18.4 µM [inhibitor, single point].
For O=C(CSc1nc2c(oc3ccccc32)c(=O)n1CC1CCCO1)NCc1ccccc1 (stereo not given), the Potency was inconclusive: 29.1 µM [inhibitor, single point].
With COCCCn1c(=N)c(C(=O)NC2CCCCC2)cc2c(=O)n3cc(C)ccc3nc21 the Potency was inconclusive: 23.1 µM [inhibitor, partial curve].
In the case of COC(=O)c1ccc2nc(-c3ccc(OC)c(OC)c3)c(Cc3ccccc3OC)n2c1, the Potency is reported as inconclusive: 20.6 µM [inhibitor, single point].
With CC1CCCN(C(=O)COC(=O)c2ccc3[nH]c4c(c3c2)CCCC4)C1 (stereo not given) the Potency was active: 23.1 µM.
With Cc1cncc(NCc2ccc3c(c2)OCO3)n1 the Potency was inconclusive: 13 µM [inhibitor, partial curve].
In the case of CN(C)c1ccc(CC(=O)N2CCCCC2c2cc(C(=O)Nc3cccc(C#N)c3)no2)cc1 (stereo not given), the Potency is reported as active: 23.1 µM.
With O=C(NCCS(=O)(=O)N1CCN(c2ccccc2)CC1)c1cc(=O)c2ccccc2o1 the Potency was inconclusive: 32.6 µM [inhibitor, single point].
For O=C1NC(Cc2ccccc2)C(=O)N1CC(=O)N1CCCc2ccccc21 (stereo not given), the Potency was inconclusive: 29.1 µM [inhibitor, single point].
In the case of CCc1cc(OCCCCNCc2ccccc2)ccc1Cl, the Potency is reported as active: 18.4 µM.
In the case of COc1ccc(CNC(=O)CN2CCN(S(=O)(=O)c3ccccc3)CC2)cc1, the “activity change, negative = growth inhibition” value is reported as inactive: -21.5%.
With CCSc1ccc2c(c1)N(CCCN1CCN(C)CC1)c1ccccc1S2 the Potency was inconclusive: 11.4 µM [inhibitor, single point] and inconclusive: 29.1 µM [inhibitor, single point].
In the case of CCc1ccccc1NC(=O)c1ccc(F)c(S(=O)(=O)N2CCN(c3cccc(Cl)c3)CC2)c1, the Potency is reported as inconclusive: 5.17 µM [inhibitor, full curve, poor fit].
For OC(COc1cccc2ccccc12)CN1CCN(c2ccccc2Cl)CC1 (stereo not given), the Potency was inconclusive: 29.1 µM [inhibitor, single point].
In the case of CC(=O)c1ccsc1-c1c(C)cc2oc(=O)cc(-c3ccccc3)c2c1C, the Potency is reported as inconclusive: 29.1 µM [inhibitor, single point].

From PubChem BioAssay AID686978 (National Center for Advancing Translational Sciences (NCATS), 2013)
% is set by controls: 0 for no effect and ±100 for the full control effect; potency is the fitted concentration of half-maximal effect; tags give direction and shape of the fitted curve.
